About 740 (0.21%) of roughly 360,000 compounds were called active. The shares of active, inactive and inconclusive entries below differ from those in the screen. Calls follow the shape of the dose curve; as a rule, active = well fitted inhibition curve with a large enough effect; inconclusive = small, poorly fitted or top-dose-only effect; inactive = no such curve, though single readings can be large or run the other way. Potencies of inconclusive entries are left out as doubtful fits.
Each compound was assayed on Plasmodium falciparum AMA1 (3D7) - RON2 peptide interaction (assay: qHTS for Inhibitors of AMA1-RON; Towards Development of Antimalarial Drug Lead: Primary Screen). Settings: AlphaScreen AMA1-biotinylated RON2 peptide binding; activity change, negative = inhibition: at 58.2 µM (top of the series) unless noted.
In short: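 AMA1 (3D7) with his tag at 25 nM final met compounds first, then biotinylated RON2 peptide at 25 nM; detection used donor plus acceptor beads, 10 µg/mL apiece, read by AlphaScreen after 30 min at room temperature.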
Also: nearly all actives have a fitted effect of over 45% in size.
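For activity change, negative = inhibition in this document: 0% = vehicle wells and -100% = peptide control.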
Potency is read from the fitted curve at half-maximal effect; tags tell the direction and shape of the fitted curve.

| SMILES | activity change, negative = inhibition | Potency |
| --- | --- | --- |
| Cc1ccc(C)c(S(=O)(=O)c2c[nH]c(=S)[nH]c2=O)c1 | inactive: 68.6% | – |
| CC[n+]1c(/C=C/c2ccc(N(C)C)cc2)ccc2ccccc21 | – | inconclusive [inhibitor, partial curve] |
| COc1ccc(C2COc3cc(O)ccc3C2)c(OC)c1O (stereo unspecified) | – | inconclusive [inhibitor, partial curve] |
| CCCC(=O)Nc1ccc(-c2csc(-c3cccnc3)n2)cc1 | inactive: 1.35% | – |
| CCCc1c(C(=O)NNc2ccccc2OC)cnn1-c1ccccc1 | – | inconclusive [inhibitor, partial curve] |
| COc1cc(CN2CCN(c3cccc(C)c3C)CC2)cc(Br)c1O | – | inconclusive [inhibitor, single point] |
| COc1ccc(NC2CCCN(C(=O)COc3ccc(C(C)=O)cc3)C2)cc1 (stereo unspecified) | inactive: -8.62% | – |
| Cc1ccc(NC(=O)c2ccc(NCc3ccc(F)cc3)nc2)cc1 | – | inconclusive [inhibitor, single point] |
| COc1cc(OC)c(OC)cc1CN1CCN(S(=O)(=O)c2ccc(NC(C)=O)cc2)CC1 | – | inconclusive [inhibitor, partial curve] |
| COc1ccc(-c2nc3c4ccccc4ccn3c2Cc2ccccc2)cc1OC | – | inconclusive [inhibitor, partial curve] |
| O=C(NCCCCc1ccccc1)c1cccc(NC(=O)C2CCCC2)c1 | inactive: -0.909% | – |
| CN(CCc1ccccc1)C(=O)c1cccc(NC(=O)Cc2cccc(NC(=O)C3CCCN(S(=O)(=O)c4cccc([N+](=O)[O-])c4)C3)c2)c1 (stereo unspecified) | inactive: -5.81% | – |
| Cc1cccc(OCC(=O)N2CCN(Cc3ccc4c(c3)OCO4)CC2)c1 | – | inconclusive [inhibitor, partial curve] |
| CN(C)CCOc1ccc(-c2c(-c3ccsc3)sc3ccccc23)cc1 | – | inconclusive [inhibitor, partial curve] |
| CCOC(=O)C(=O)Cc1cccnn1 | – | inconclusive [inhibitor, partial curve] |
| CCCNC(=S)Nc1ccc2nc(-c3ccccn3)c(-c3ccccn3)nc2c1 | inactive: -2.02% | – |
| Cc1ccc(CN(CC(O)COc2cccc3[nH]cc(C)c23)C(C)(C)C)cc1 (stereo unspecified) | – | inconclusive [inhibitor, single point] |
| CCN(CC)c1ccc(C(=C2C=CC(=[N+](CC)CC)C=C2)c2ccc(S(=O)(=O)O)cc2S(=O)(=O)[O-])cc1 | – | inconclusive [inhibitor, single point] |
| FC(F)(F)c1nc(N2CCCC2)ncc1-c1nnnn1-c1ccc(Cl)cc1 | inactive: 9.89% | – |
| CCN1C(=O)/C(=C\C(=O)c2cccs2)c2cc(Br)ccc21 | – | inconclusive [inhibitor, partial curve] |
| CCOc1cc2c(cc1OCC)-n1cccc1C(c1c(O)cccc1OC)NC2 (stereo unspecified) | – | inconclusive [inhibitor, partial curve] |

| SMILES | activity change, negative = inhibition | Potency |
| --- | --- | --- |
| CN(C)c1ccc(N2CN=C3SCC(=O)N3C2)cc1 | – | inconclusive [inhibitor, partial curve] |
| COc1ccc(Br)cc1CN1CCC(N2CCCC2)CC1 | – | inconclusive [inhibitor, single point] |
| COc1cccc(CC(=O)NNC(=O)CN(C)S(=O)(=O)c2ccc(C)cc2)c1 | inactive: 88.7% | – |
| CC(C)OCCCNC1=C(Cl)C(=O)c2ccccc2C1=O | – | active: 20 µM |
| CCOC(=O)N1CCN(C(=O)CN2C(=O)c3ccccc3S2(=O)=O)CC1 | – | inconclusive [inhibitor, partial curve] |
| CCN(CC)S(=O)(=O)c1ccc(N=Nc2cc(C)cc(Br)c2O)cc1 | – | inconclusive [inhibitor, full curve] |
| COc1ccc2c(-c3ccc(OCCN4CCOCC4)cc3)c(-c3ccccc3OC)sc2c1 | – | inconclusive [inhibitor, single point] |
| CCOC(=O)C1=C(c2ccccc2)Nc2ncnn2C1c1cc(OC)cc(OC)c1OC (stereo unspecified) | – | inconclusive [inhibitor, full curve, poor fit] |
| CCOC(=O)C1CCCN(C(=O)c2ccc(-c3ccc([N+](=O)[O-])cc3)o2)C1 (stereo unspecified) | – | inconclusive [inhibitor, partial curve] |
| C#CCOCCOCCOCCNc1nc(N2CCN(C(=O)CCCCCCCCCCNC(=O)[C@H](CCCCN)n3cc(C)nn3)CC2)nc(N2CCN(C(=O)CCCCCCCCCCNC(=O)[C@H](CO)n3cc(CCCSC)nn3)CC2)n1 | – | inconclusive [inhibitor, single point] |
| CCOc1ccc(-n2cc(-c3ccccc3)c3c(N4CCOCC4)ncnc32)cc1 | – | inconclusive [inhibitor, partial curve] |
| Cc1cccc(NC(=S)N/N=C2\CC(C)(C)Oc3ccc(O)cc32)c1 | – | inconclusive [inhibitor, partial curve] |
| COc1cc2ccccc2cc1C(=O)Nc1ccccc1N1CCCC1 | – | inconclusive [inhibitor, single point] |
| CCN(Cc1ccccc1)S(=O)(=O)c1ccc(C(=O)N(CCCN(C)C)c2nc3c(C)c(C)ccc3s2)cc1 | – | inconclusive [inhibitor, partial curve] |
| O=[N+]([O-])c1ccc(C(=Nc2cccc3ccccc23)N2CCOCC2)cc1 | – | inconclusive [inhibitor, partial curve] |
| COc1ccc2ccccc2c1C=NN1CCCCC1 | – | inconclusive [inhibitor, single point] |
| CC(C)(C)NC(=O)C(c1ccccn1)N(C(=O)C1CSC(=O)C1)c1cccc(F)c1 (stereo unspecified) | – | inconclusive [inhibitor, single point] |
| O=[N+]([O-])c1c(C(Cl)Cl)nn(-c2ccc(Cl)cc2)c1N1CCCCC1 | – | inconclusive [inhibitor, partial curve] |
| CCOC(=O)C1=CCN(S(=O)(=O)c2ccccc2Br)C1c1cccc(F)c1 (stereo unspecified) | inactive: -1.77% | – |
| O=C(CNC(=O)c1cccs1)N=Nc1c(O)[nH]c2ccc(Br)cc12 | – | inconclusive [inhibitor, single point] |

Source: PubChem BioAssay AID720542 (National Center for Advancing Translational Sciences (NCATS), 2013)
